# Assay results: PMC12136788
# Some of the results follow.
# T1: UNK ZnF1-6 (called full-length) (human, UniProt Q9C0B0 30-357)
# T1 sequence: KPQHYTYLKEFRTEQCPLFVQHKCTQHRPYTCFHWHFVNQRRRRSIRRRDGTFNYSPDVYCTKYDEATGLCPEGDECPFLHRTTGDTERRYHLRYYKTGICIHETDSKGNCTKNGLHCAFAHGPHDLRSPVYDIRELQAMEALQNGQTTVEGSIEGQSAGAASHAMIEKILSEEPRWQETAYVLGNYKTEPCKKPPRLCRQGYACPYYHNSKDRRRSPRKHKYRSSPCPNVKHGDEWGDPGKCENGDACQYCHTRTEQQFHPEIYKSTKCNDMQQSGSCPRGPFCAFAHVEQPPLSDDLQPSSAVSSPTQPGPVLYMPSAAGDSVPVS
# B1: chr17:29166540:29166641:-|CDS|ENSG00000196535|unk|FALSE|unique (ssRNA)
# RNA: GGGAGUUCUACAGUCCGACGAUCCUGGACUCGGGCCACCUAAGUACAGCCAGCUCCAGCGAUGACCUCAAGGGUGAGGAGGGUAGCUUCCGUGGCUCGGUGCUGCAGCGGGCAGCCAAGUUCGGCUCACUGGCCAAGCAGAACCAACAGAGGAUUGAGCAUCA
# B2: chr7:6403675:6403689:+|3pUTR|ENSG00000136238|msi1_unk|total|mutant (ssRNA)
# RNA: GGGAGUUCUACAGUCCGACGAUCACUGUCACUUGACCAAUACUGACCCUCUUUACCUCGCCCACGCGGACACACGCCUCCUGCCGUCGCUUUGCCUAUUGAUGUUCCUUUGGGUCUGUGAGGUUCUGUAAACUGUGCCCGUGCCAACAGAGGAUUGAGCAUCA
# B3: chr2:158176520:158176661:-|CDS|ENSG00000153237|control|control|control (ssRNA)
# RNA: GGGAGUUCUACAGUCCGACGAUCGCUGUUGUUGCUCAAUUUGAUCCUGUUAGAAUGAUGUCAGAUACAAUGGCAUCAAAAGCUAGAAUGGGCAUUGAAAUUGAAGAAGAAUUUAUUCUUCAAAAGCCACUCUUCACAUUGAAUCAACAGAGGAUUGAGCAUCA
# B4: chr7:137014887:137014989:+|CDS|ENSG00000181072|unk|FALSE|unique (ssRNA)
# RNA: GGGAGUUCUACAGUCCGACGAUCGCUACUUGGCUACUGAUUAGAGAACGCAAAAUGAAUAACUCAACAAACUCCUCUAACAAUAGCCUGGCUCUUACAAGUCCUUAUAAGACAUUUGAAGUGGUGUUUAUUGUCCUGGUGGCUCAACAGAGGAUUGAGCAUCA
# B5: chr4:110049619:110049852:-|3pUTR|ENSG00000170522|msi1|total|mutant (ssRNA)
# RNA: GGGAGUUCUACAGUCCGACGAUCUUGUUCAAUGUGACAUAACCGUAUUAUAAUUGGUUAAGCCGCUUAAUGAUCCGGCAAACCCGAUGAAAAGAUCCGGGGCUUCCACACUGCACCGAUUACACGCACACCGCCACGCAUACACAACAGAGGAUUGAGCAUCA
# B6: chr17:80295660:80295761:+|CDS|ENSG00000173821|msi1|total|mutant (ssRNA)
# RNA: GGGAGUUCUACAGUCCGACGAUCGAGUAAACUGAAAACAGGCCUGAUUGUCCUUUUUGCCGUGGAAAAAAUUGAGCUUUUAUCCGAAGGCAGCCUGGACUGGUUGUGUCACCUCCUAACCUCAGAUGCCAGCUCACCAGAUGACAACAGAGGAUUGAGCAUCA
# B7: chr4:70689993:70690094:+|CDS|ENSG00000132467|unk|FALSE|unique (ssRNA)
# RNA: GGGAGUUCUACAGUCCGACGAUCAGAGCCAAAAUUAGAAGAAGAGGCCAGGUUCGUGAAGUUCGUAAAGAAGAGCAACGUUAUAGUGGUGAAUUAUCUGGCAUUCGUGCAGGAGUUAAAAAGAGCAUUAAGCUUAAAUGAAGUCAACAGAGGAUUGAGCAUCA
# B8: chr5:56893553:56893673:+|CDS|ENSG00000095015|unk|total|mutant (ssRNA)
# RNA: GGGAGUUCUACAGUCCGACGAUCUGCUCCAUCGAUCCCUUCACAUUUGUCUCCUGGUUUACGAGAUGUGGCUCUUCGUUGUUCCGAACUUCAACCUCAGGACAGACCUCCAUCAAGAGAGCUACUGAAGCAUCCAGUCUUUCGCAACAGAGGAUUGAGCAUCA
# B9: chr7:101137743:101137929:+|3pUTR|ENSG00000106366|msi1|total|mutant (ssRNA)
# RNA: GGGAGUUCUACAGUCCGACGAUCCCACUGAGGCCCUUUGCAGGAUGGAACUACGGGGCUUACAGGAGCUUUUGUGUGCCUGGCCGAAACUAUUUCUGUUCCAGUCACAUUGCCAUCACUCUUGUACUGCCUGCCACCGCGGAGCAACAGAGGAUUGAGCAUCA
# B10: chr2:147927148:147927248:+|CDS|ENSG00000121989|msi1_unk|FALSE|overlapping (ssRNA)
# RNA: GGGAGUUCUACAGUCCGACGAUCUGAAACCAUUGAAGAAUGUUGGGAUCACGACGCAGAAGCCAGGUUAUCAGCUGGAUGUGUAGGUGAAAGAAUUACCCAGAUGCAGAGACUAACAAAUAUUAUUACCACAGAGGACAUUGUCAACAGAGGAUUGAGCAUCA
# B11: chr2:1633339:1633490:-|3pUTR|ENSG00000130508|msi1|total|mutant (ssRNA)
# RNA: GGGAGUUCUACAGUCCGACGAUCUUCAUAAGCCACAUUCCGAAACAGGUUUGCUUUCAGCUGUCACUUGCACACAUACUGCCCCGUUGUGAACCAAAUGUGAAAAAACCUCCUUCAUCCCAUUGUGUAUCUGAUACCUGCCGACAACAGAGGAUUGAGCAUCA
# B12: chr2:135840511:135840612:-|3pUTR|ENSG00000076003|msi1|total|mutant (ssRNA)
# RNA: GGGAGUUCUACAGUCCGACGAUCGCUUCAGCACUUCCUUUGGUGUGUUUCCUGUCCCAGUGAAGUUGGAACCAAAUAAUGUGCCGUCUCUAUAACCAAUACCUUUGUUUUCAUGUGUAAGAAAAGGCCCAUUACUUUUAAGGUCAACAGAGGAUUGAGCAUCA
# B13: ENSG00000198589:be:win_1401|CDS|ENSG00000198589|bound_else_gene|NA|bound_elsewhere_windowed (ssRNA)
# RNA: GGGAGUUCUACAGUCCGACGAUCGCAUUCAAUUGGAGGAGUACAAGUACUAUUUCCACUUUUUGCACAGUUGGAUUACAGGCAAUAUUUGUCUGAUGAGAUUGAUUUGACUAUAUGUUCAACCUUGCUGGCCUUUAUCAUGGACAACAGAGGAUUGAGCAUCA
# B14: chr7:124031896:124032004:-|CDS|ENSG00000234224|unk|total|mutant (ssRNA)
# RNA: GGGAGUUCUACAGUCCGACGAUCUACCCGCUCAAUUUUAUGGGCCUCAUCACCCUGAUGUAUUUACCUGGCUGGAUAUUCCUCCGUGUGUACCAGGACCUAAUUUCCAACGUGUUGUGGAGGGUGCAGUACGUACCAGCUAACCAACAGAGGAUUGAGCAUCA
# B15: chr12:20680103:20680206:+|CDS|ENSG00000172572|unk|total|mutant (ssRNA)
# RNA: GGGAGUUCUACAGUCCGACGAUCCUUACAGAACCACAAGAUGUGGAAGAAAGUCAUUGAAGAGGAGCAACGGUUGGCAGGCACCGAAAAUCAAUCCCUGGACCAGACCCCUCAGUCGCACUCUUCAGAACAGAUCCAGGCUAUCAACAGAGGAUUGAGCAUCA
# B16: chr9:127749210:127749665:-|CDS|ENSG00000095370|control|control|control (ssRNA)
# RNA: GGGAGUUCUACAGUCCGACGAUCUUCCCACUGCGCUACCUCGAGGCCAGCUAUGGCCUGGGACAGGGGAGUAGCAAGCCUGCUAGCCCCGUCAGCCCCUCAGGCCCCAAGGGCAGCCACAUGAAGCGGCGCAGCGUCACCAUGCAACAGAGGAUUGAGCAUCA
# B17: chr9:37357341:37357442:+|3pUTR|ENSG00000147905|unk|FALSE|unique (ssRNA)
# RNA: GGGAGUUCUACAGUCCGACGAUCAUUAUCUAUGAUUAAAUAAAGUGAGUUUUUGGUUUUGUUUUUUUAAUUUCAGCCAUUCCUAGAGUUACUGAAUAUCCAUGGAGAUCUCAAUUCUCUGUGUCCAACAGGAUAUUAGGUAAGCAACAGAGGAUUGAGCAUCA
# B18: chrX:130230552:130230660:-|CDS|ENSG00000056277|unk|total|mutant (ssRNA)
# RNA: GGGAGUUCUACAGUCCGACGAUCAUCAGAACGUCCAUGUGAUGAAGACAAGACUGAUUCAGAGACAGGAAAGUUGAUCAUGUCCGUCAAUGAGUUUUAUUAUGGAAGGCAUGAAGGAGUCACUGAGAAAGAGCCAAAGACUUACAACAGAGGAUUGAGCAUCA
# B19: ENSG00000142634:stop:overlap|stop_codon|ENSG00000142634|stop_codon|NA|stop_codon (ssRNA)
# RNA: GGGAGUUCUACAGUCCGACGAUCAGGCGGAGGAGAUGAAGCAGCGGAAAGCGGCCUUCAAGGAGCUGCAGUCCACCUUUAAGUAGCGGGGGCUGCAGCCGACCGCCCUGCUCCGGCCCCAGUGUGGUGGGCGAGGGUGGCGCACAACAGAGGAUUGAGCAUCA
# B20: chr22:35295155:35295256:+|3pUTR|ENSG00000100281|unk|FALSE|unique (ssRNA)
# RNA: GGGAGUUCUACAGUCCGACGAUCUUUCUUCUCCUGGCCCUGACAGAGCACUACAGCAUCAAAGUAAAUCUUUGGGGACAGUGUAGCCCAUCUGCAUCCUAUUUAAUUUCUUCCCUUCUCCCCACCAGUGUUGUCACAGGGCUACAACAGAGGAUUGAGCAUCA
# B21: chr14:44924370:44924471:-|3pUTR|ENSG00000179454|unk|FALSE|unique (ssRNA)
# RNA: GGGAGUUCUACAGUCCGACGAUCACCUUUUUAGCAUCAGGGUUUUAUUUUAUUUAUGUUUACACACUAAAGUGUCAUUUAACUAGUUAAGAAUUGUAUUCUUUUUUAUUUUAAAGGUUAUUUGUGUGUAUCAUUGUGGUAAUGCAACAGAGGAUUGAGCAUCA
# B22: chr16:2602459:2602560:+|3pUTR|ENSG00000140992|msi1|FALSE|bound_elsewhere (ssRNA)
# RNA: GGGAGUUCUACAGUCCGACGAUCAACUAUGUACAGAGAACUUUUUACAAAAGGCAGACCUUUUUUAAGCUGUGUAACCCACAUAGCCUAACCACCUGGCAGAAUGACUACGAAUAGGGGUCAUUGUGCUGGUAAAAGCCUCUACAACAGAGGAUUGAGCAUCA
# Target: T1, UNK ZnF1-6 (called full-length)
# Experiment: nsRBNS (natural sequence RNA bind-n-seq); RBNS binding buffer (assumed for nsRBNS): 25 mM Tris pH 7.5, 150 mM KCl, 3 mM MgCl2, 0.01% Triton X-100, 500 ug/ml BSA, 20 U/ml SUPERase-In, 4 C; UNK is unkempt and MSI1 is Musashi-1; names of the RNAs are library labels; protein concentration not given here; high values mean tight binding
row,Binder,binding signal [enrichment R]
1,B1,0.93
2,B2,0.597
3,B3,0.521
4,B4,0.223
5,B5,0.566
6,B6,0.495
7,B7,1.05
8,B8,0.512
9,B9,0.534
10,B10,0.926
11,B11,0.45
12,B12,0.309
13,B13,0.278
14,B14,0.655
15,B15,0.725
16,B16,0.643
17,B17,0.516
18,B18,0.608
19,B19,1.43
20,B20,1.07
21,B21,1.29
22,B22,0.398
